Laboratory results as given in PubChem BioAssay AID504832 (National Center for Advancing Translational Sciences (NCATS), 2011).
In all, about 310,000 compounds went through this assay and about 18,000 (5.8%) were called active. The shares of active, inactive and inconclusive entries below differ from those in the screen. The call rests on the fitted dose curve; in most records, active means well fitted inhibition curve with a large enough effect; inconclusive means small, poorly fitted or top-dose-only effect, or another doubt; inactive means no such curve, though single readings can be large or run the other way. No potency is given beside an inconclusive call; the fits are too rough.
Potency means the concentration at half of the fitted maximal effect; tags describe the fitted curve by direction and shape.

Assay: Primary qHTS for delayed death inhibitors of the malarial parasite plastid, 48 hour incubation
Settings: P. falciparum luciferase growth in erythrocytes; series mostly up to 28.7 µM
Summary of the method: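 Here the parasites carry a stable luciferase gene and grow inside erythrocytes in Albumax-based RPMI medium with compound for one erythrocytic cycle. Activity is scored as loss of luminescent signal.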
With `C=CCNC(=O)/C(C#N)=C/c1c(N2CCN(c3ccccc3)CC2)nc2c(C)cccn2c1=O` the Potency was inconclusive [inhibitor, single point]. For `COc1ccc(CNC(=O)CN2CCN(c3ccccc3)CC2)cc1`, the Potency was “inactive”. In the case of `COc1cccc(N2CC(C(=O)Nc3ccc(C(=O)OC(C)C)cc3)CC2=O)c1` (stereo unspecified), the Potency is reported as inconclusive [inhibitor, single point]. In the case of `CCOC(=O)N1CCN(S(=O)(=O)c2ccc(C(=O)N(CCCN(C)C)c3nc4c(C)c(C)ccc4s3)cc2)CC1`, the Potency is reported as inconclusive [inhibitor, single point]. For `Cc1c(C(=O)N2CCOCC2)[nH]c2c1C(=O)CC(c1ccccc1Cl)C2` (stereo unspecified), the Potency was inconclusive [inhibitor, partial curve]. For `CN1CCN(C(=O)C2CCCN(S(=O)(=O)c3ccc(F)cc3)C2)CC1` (stereo unspecified), the Potency was inconclusive [inhibitor, single point]. With `COc1ccccc1-c1ocnc1C(=O)N1CCN(C(=O)C(c2ccccc2)c2ccccc2)CC1` the Potency was inconclusive [inhibitor, partial curve]. For `COCCN1Cc2cccc(C(=O)Nc3ccc(-c4nc5ccccc5[nH]4)cc3)c2C1=O`, the Potency was inconclusive [inhibitor, single point]. For `CC1CCc2nc(NC(=O)Cc3cccs3)sc2C1` (stereo unspecified), the Potency was “inactive”. In the case of `Cc1noc2ncnc(Oc3ccccc3)c12`, the Potency is reported as “inactive”. In the case of `O=C(COc1ccc2ccc(=O)oc2c1)NC1CCN(Cc2ccccc2)CC1`, the Potency is reported as “inactive”. With `O=C(N/N=C/c1ccc(OC(=O)c2ccccc2Cl)cc1)c1ccc(O)cc1` the Potency was “inactive”. With `COc1ccc([C@H]2CC(=O)C=C(c3cc(F)ccc3F)C2)cc1OC` the Potency was inconclusive [inhibitor, partial curve, poor fit]. In the case of `CC(OC(=O)c1ccc(-n2cnnn2)cc1)C(=O)N(C)c1ccccc1` (stereo unspecified), the Potency is reported as inconclusive [inhibitor, single point]. With `CCn1c(=O)cc(SCC(=O)NCCCN2CCC(C)CC2)c2ccccc21` the Potency was inconclusive [inhibitor, single point]. In the case of `CCn1cnc2c(Nc3cc(F)cc(F)c3)nc(C#N)nc21`, the Potency is reported as active: 0.828 µM. For `COc1cc(CNc2ccc(CNc3ncn[nH]3)cc2)ccc1OCC(=O)NC(C)(C)C`, the Potency was inconclusive [inhibitor, partial curve, poor fit]. For `CCC(C)(C)n1nnnc1CN(Cc1cccs1)Cc1cc2cc(OC)ccc2[nH]c1=O`, the Potency was active: 13.1 µM. With `COC(=O)/C(=C/c1ccco1)NC(=O)c1ccccc1` the Potency was “inactive”. With `O=C(CSc1nc2ccccc2s1)Nc1cc(S(=O)(=O)N2CCOCC2)ccc1Cl` the Potency was inconclusive [inhibitor, single point]. For `O=C1N/C(=N\N=C\c2cccs2)SC1Cc1ccc(Cl)c(Cl)c1` (stereo unspecified), the Potency was inconclusive [inhibitor, single point]. With `COCC(C)n1c(SC(C)C(=O)NC2CCCCC2C)nc2ccccc2c1=O` (stereo unspecified) the Potency was inconclusive [inhibitor, single point]. In the case of `COc1ccc(OC)c(N(C)S(=O)(=O)c2ccc3c(c2)N(C(C)=O)CCO3)c1`, the Potency is reported as “inactive”. In the case of `Cc1nn(-c2ccccn2)c2nc(-c3cccs3)cc(C(=O)N3CCOCC3)c12`, the Potency is reported as inconclusive [inhibitor, single point]. In the case of `CC1=CC2=NC(=O)/C(=C\c3cc(C)n(-c4ccccc4F)c3C)C(=N)N2O1`, the Potency is reported as active: 10.4 µM. With `CC1CCCCC1NC1=NCCCS1` (stereo unspecified) the Potency was inconclusive [inhibitor, single point]. For `CCOC(=O)c1nn(-c2ccc(F)cc2)c(=O)cc1OCC(=O)N1CCN(c2ccccc2)CC1`, the Potency was “inactive”. For `CC(=O)NCCCOc1ccc([N+](=O)[O-])cc1Cl`, the Potency was “inactive”. For `C#Cc1ccc([C@H]2C=C(C(=O)O)O[C@@H](OCc3ccc(CO)cc3)C2)cc1`, the Potency was “inactive”. With `O=C(Cc1cccc(NC(=O)C2CCN(C(=O)C3CC3)CC2)c1)Nc1cccc(C(=O)N2CCCC2)c1` the Potency was inconclusive [inhibitor, partial curve]. With `CNC(=O)Cc1csc2ccc(C)cc12` the Potency was inconclusive [inhibitor, full curve, poor fit]. For `O=C(c1ccco1)N1CCN(c2nc(C3CC3)nc3sc4c(c23)CCCC4)CC1`, the Potency was active: 9.28 µM. In the case of `CC(C)c1cccc(C(C)C)c1OCCn1ccnc1`, the Potency is reported as active: 13.1 µM. With `CCN(CC1CCCO1)C(=O)C1CCN(C2CCN(Cc3ccccc3C)CC2)CC1` (stereo unspecified) the Potency was inconclusive [inhibitor, single point]. With `CCC(C)N1C(=O)N(c2cccc(Cl)c2)C(C)(O)CC1(C)C` (stereo unspecified) the Potency was “inactive”. With `COc1ccc(SCc2noc(C(=O)NC(C)C)c2C(=O)O)cc1` the Potency was “inactive”. In the case of `CCOC(=O)N1CCN(C(=O)c2cccc(N3C(=O)NC4CC3(C)Oc3ccc(Cl)cc34)c2)CC1` (stereo unspecified), the Potency is reported as inconclusive [inhibitor, partial curve]. For `CC(=O)Nc1ccc(NC(=O)COc2ccc(-c3ccccc3)cc2)cc1`, the Potency was “inactive”. For `Cc1ccccc1C(=O)Nc1ccc(Br)c(C)n1`, the Potency was “inactive”. For `Cc1nn(-c2ccc(F)cc2)c(C)c1CN1CCN(Cc2ccccc2)C(CCO)C1` (stereo unspecified), the Potency was inconclusive [inhibitor, single point]. In the case of `Cc1ccc(C(=O)Nc2ccc(S(=O)(=O)N3CCOCC3)cc2)cc1`, the Potency is reported as inconclusive [inhibitor, partial curve, poor fit]. With `CCOc1ccc(C2CC(c3c(O)n(C)c(=O)n(C)c3=O)=NN2)cc1` (stereo unspecified) the Potency was inconclusive [inhibitor, partial curve]. With `O=C(COC(=O)/C=C/c1ccc(F)cc1)Nc1cc(C(F)(F)F)ccc1N1CCOCC1` the Potency was “inactive”. In the case of `COc1ccc(-n2ccn3c(CCC(=O)N4CCN(c5cccc(C)c5C)CC4)nnc3c2=O)cc1`, the Potency is reported as inconclusive [inhibitor, partial curve]. With `CCOC(=O)C1CCN(C(=O)CCc2ccccc2)CC1` the Potency was “inactive”. For `Cc1ccc(C(=O)NC(NCc2ccccc2)C(Cl)(Cl)Cl)cc1` (stereo unspecified), the Potency was inconclusive [inhibitor, single point].
